Results reported in PubChem BioAssay AID1345083 (National Center for Advancing Translational Sciences (NCATS), 2018).
Out of some 94,000 compounds screened, about 6,200 (6.6%) were called active. Inconclusive results, whose numbers are uncertain, are shown with a selection of clear calls. Calls follow the shape of the dose curve; as a rule, active = well fitted inhibition curve with a large enough effect; inconclusive = small, poorly fitted or top-dose-only effect; inactive = flat fitted curve, though single readings scatter. Potencies of inconclusive entries are doubtful fits and often do not repeat.
% is scaled to controls: 0 for no effect and ±100 for the full control effect; potency is read from the fitted curve at half-maximal effect; tags tell the direction and shape of the fitted curve.

Assay: Cytotoxic Profiling in HEK 293 Cell Line of Diverse Libraries Using Quantitative High-Throughput Screening; also: nearly all actives have a fitted effect of over 60% in size
Conditions: HEK 293 viability, ATP luminescence (CellTiter-Glo), 48-72 h; activity change, negative = cytotoxicity: at 115 µM (top of the series) unless noted; series mostly up to 115 µM
Source text: Cell-based phenotypic screening is a commonly used approach to discover biological pathways, novel drug targets, chemical probes and high-quality hit-to-lead molecules. Many hits identified from high-throughput screening campaign are ruled out through a series of follow-up potency, selectivity/specificity, and cytotoxicity assays. Prioritization of molecules with little or no cytotoxicity for a more in-depth downstream evaluation influence the future direction of projects, so cytotoxicity profiling of the screening libraries at early stage is essential for increasing the likelihood of candidate success. In this study, we analyzed results from a cell-based cytotoxicity screening campaign, comprising nearly 10,000 compounds in NCATS annotated libraries, and over 100,000 compounds in a diversity library, evaluated in four normal cell lines (HEK 293, NIH 3T3, CRL-7250 and HaCat) and a cancer cell line (KB 3-1, a HeLa subline) with overall screening outcomes, hit rates, pan-activity and selectivity. For the annotated library, we also examined the primary targets and mechanistic pathways regularly associated with cell death. To our knowledge, this is the first study to use high-throughput screening to profile large libraries for cytotoxicity assessment in both normal and cancer cell lines. In summary, the results generated here constitutes a valuable resource for the scientific community and provides insight on identifying cytotoxic compounds with particular mechanisms of action, and prioritizing compounds with suitable cytotoxicity profile for further evaluation.
HEK 293 cells were seeded into white 1536-well plates using a Multidrop Combi peristaltic dispenser (ThermoFisher, Waltham, MA) at a density of 250 cells/well in 5 uL of medium respectively. A pintool (Kalypsys) was used to transfer 23 nL of compound solution to the 1536-well assay plates. After 48 or 72 hr incubation at 37 degree Celsius, 5% CO2 and 95% humidity, 2.5 uL of CellTiter-Glo (Promega) was dispensed into each well using a dispenser (Aspect Automation, St. Paul, MN) with solenoid valves (Lee Valves, Westbrook CT). Plates were left at room temperature for 10 min before imaging the ATP-coupled luminescence using a ViewLux microplate imager (PerkinElmer, Waltham, MA).
For `Cc1ccccc1-c1cc(C(=O)NCC[S+](C)(=O)[O-])c2c(c1)N(C)CCO2`, the Potency was inconclusive: 100 µM [inhibitor, partial curve, poor fit]. In the case of `O=C1CCC2(CCCO2)CCN1Cc1ccccc1C(F)(F)F` (centres undefined), the “activity change, negative = cytotoxicity” value is reported as inactive: -2.6%. For `Cc1cccc(OCCc2noc(C3CCN(C(=O)C4CCCC4)C3)n2)c1` (centres undefined), the Potency was inconclusive: 79.4 µM [inhibitor, partial curve, poor fit]. With `CCCNC(=O)NC[C@@H]1C=C(C)[C@H](Cc2nc3ccc(C(=O)OC)cc3[nH]2)C[C@H]1C(C)C` the Potency was inconclusive: 56.2 µM [inhibitor, partial curve, poor fit]. With `O=C(NC1CCCN(c2cc(-c3ccccc3)[nH]n2)C1)c1ccccn1` (centres undefined) the Potency was inconclusive: 56.2 µM [inhibitor, partial curve, poor fit]. For `COc1cccc(CC(=O)N2CCCC3(C2)NC(=O)N(Cc2cc(C)ccc2C)C3=O)c1` (centres undefined), the “activity change, negative = cytotoxicity” value was inactive: -24.6%. With `Clc1cccc(-c2cnc([C@@H]3COCCN3Cc3ncc[nH]3)[nH]2)c1` the “activity change, negative = cytotoxicity” value was inactive: -9.59% [at 172 µM]. In the case of `CN[C@@H](CC(C)C)C(=O)N[C@H]1CCN2C(=O)c3cc(-c4ccc(OC)cc4OC)ccc3NC(=O)[C@@H]2C1`, the Potency is reported as inconclusive: 79.4 µM [inhibitor, partial curve, poor fit]. In the case of `Cc1nn(-c2ccc(C(F)(F)F)cc2)c(C)c1[C@@H]1C=C[C@@H](NS(=O)(=O)c2cccs2)C1`, the Potency is reported as inconclusive: 50.1 µM [inhibitor, partial curve, poor fit]. In the case of `COCCOC(=O)C1=C(C)N=C2SC=C(CC(=O)Nc3cccc(OC)c3)N2C1c1ccccc1` (centres undefined), the Potency is reported as inconclusive: 8.91 µM [inhibitor, partial curve, poor fit]. With `NC(=O)[C@@H]1C[C@H](Oc2cccnc2)CN1S(=O)(=O)c1ccc2c(c1)OCCO2` the “activity change, negative = cytotoxicity” value was inactive: -13.1%. In the case of `c1csc(-c2nc3nccc(-c4cc5ccccc5o4)n3n2)c1`, the Potency is reported as inconclusive: 89.1 µM [inhibitor, partial curve]. With `NCc1ccccc1-c1ccc(OC(F)(F)F)cc1` the Potency was active: 56.2 µM. With `COc1ccccc1CC(=O)N1CCN(c2cc(-c3cccs3)[nH]n2)CC1` the Potency was active: 39.8 µM. With `CCOc1cc(=O)n2c(c1C(=O)NCc1ccccc1Cl)CCCCC2` the Potency was inconclusive: 100 µM [inhibitor, single point]. For `CC(C)n1cc(CN2CCCC23CCN(c2ccc(C(F)(F)F)cn2)CC3)cn1`, the Potency was inconclusive: 56.2 µM [inhibitor, partial curve, poor fit]. For `CCCNC(=O)[C@@H]1Cc2cn(Cc3cccnc3)c3cccc(c23)[C@H](CC(C)C)N1`, the Potency was inconclusive: 56.2 µM [inhibitor, full curve, poor fit]. With `CN(Cc1ccc(F)cc1)c1ccc2ncc(Nc3ccnc(N4CCOCC4)c3)n2n1` the Potency was inconclusive: 39.8 µM [inhibitor, partial curve, poor fit]. For `Cc1nnnn1CC(=O)Nc1nn(Cc2ccccc2)c2cccc(OC(C)C)c12`, the “activity change, negative = cytotoxicity” value was inactive: -25.9%. With `COc1ccc(-c2nc(C3CC3)nc3c2CCN(Cc2ccc(C(F)(F)F)cc2)CC3)cc1` the Potency was inconclusive: 56.2 µM [inhibitor, partial curve, poor fit]. For `Cc1cc(-c2ccnc(-c3nnc(C)n3CCN3CCOCC3)c2)ccn1`, the “activity change, negative = cytotoxicity” value was inactive: -6.39% [at 172 µM]. With `Cc1ccc(-c2cc(C(=O)N3CCC(Cc4nncn4CC4CC4)CC3)c3ccccc3n2)cc1C` the Potency was inconclusive: 20 µM [inhibitor, partial curve, poor fit]. In the case of `Cn1cccc1CNC(=O)C1c2ccccc2C(=O)N(Cc2ccccc2)C12CCCC2` (centres undefined), the Potency is reported as inconclusive: 89.1 µM [inhibitor, single point]. In the case of `COC(=O)[C@@H]1Cc2ncn(Cc3ccc(OC)cc3)c2CN1C(=O)C1CCCCC1`, the Potency is reported as inconclusive: 126 µM [inhibitor, single point]. With `O=C(NCCc1ccncc1)C1CN(S(=O)(=O)c2ccccc2)CC12CCCCC2` (centres undefined) the “activity change, negative = cytotoxicity” value was inactive: 8.58%. For `Cc1ccc(CN2CCCCCNC(=O)CC2c2ccccc2)o1` (centres undefined), the Potency was inconclusive: 56.2 µM [inhibitor, partial curve, poor fit]. With `O=C(c1ccc2oc(-c3ccc(C(F)(F)F)cc3)nc2c1)N1CCOCC1` the Potency was inconclusive: 50.1 µM [inhibitor, partial curve]. With `CC(C)CN1C(=O)c2ccccc2C(C(=O)Nc2nccs2)C12CCCC2` (centres undefined) the Potency was inconclusive: 70.8 µM [inhibitor, single point]. In the case of `CC1=C[C@@H](CNC(=O)c2ccccc2)[C@H](C(C)C)C[C@H]1Cc1nc2ccncc2[nH]1`, the Potency is reported as active: 79.4 µM. For `COc1cccc(CCC(=O)N2CCCN(C)c3ccccc32)c1`, the Potency was inconclusive: 44.7 µM [inhibitor, partial curve, poor fit]. For `C=CCOc1c(OC)ccc2c1CN(CC1CC1)C(=O)CCN2CC(O)COc1ccc(OC)cc1` (centres undefined), the Potency was active: 39.8 µM. In the case of `CCOc1ccccc1NC(=O)C1CC(=O)N(c2n[nH]c3ccccc23)C1` (centres undefined), the Potency is reported as inconclusive: 89.1 µM [inhibitor, single point]. With `COc1ccnc(CN2CCC3(CC2)CN(CCOc2ccccc2)C(=O)O3)c1OC` the Potency was inconclusive: 25.1 µM [inhibitor, full curve, poor fit]. For `c1ccc2c(c1)CCN(Cc1ccc3c(c1)CNCCO3)C2`, the Potency was inconclusive: 56.2 µM [inhibitor, partial curve, poor fit]. With `CCN1C(=O)C2CC3(CCN(Cc4ccc5cc[nH]c5c4)CC3)CN2C1=O` (centres undefined) the Potency was inconclusive: 89.1 µM [inhibitor, single point]. For `Cc1nc(N2CCC(C(=O)Nc3ccc(F)c(Cl)c3)CC2)cc(C(F)(F)F)n1`, the Potency was active: 25.1 µM. For `CCCCSc1nc(N)cc(N2CCCC(C(=O)N3CCOCC3)C2)n1` (centres undefined), the “activity change, negative = cytotoxicity” value was inactive: -22.1%. For `O=C1CCN(CC(O)Cc2ccccc2)c2ccc(F)cc2CN1CC1CC1` (centres undefined), the Potency was inconclusive: 79.4 µM [inhibitor, partial curve, poor fit]. For `O=C(c1cccs1)N1CCOC(CCc2ccccc2)C1` (centres undefined), the Potency was inconclusive: 39.8 µM [inhibitor, partial curve]. With `O=C(c1nc2cccnc2n(CCc2ccccc2)c1=O)N1CCN(C(=O)C2CCCC2)CC1` the “activity change, negative = cytotoxicity” value was inactive: 0.608%. With `CC1(C)C[C@H](NC(=O)c2cccc(F)c2)[C@@]2(CCC(=O)NCc3ccco3)CC[C@](C)(O)C[C@@H]12` the Potency was inconclusive: 63.1 µM [inhibitor, partial curve, poor fit]. In the case of `COc1ccc(-c2cc(C[C@H]3CNCC[C@H]3CC(=O)N3CCCCC3)no2)cc1`, the Potency is reported as inconclusive: 126 µM [inhibitor, single point]. For `CC(C)(C)c1ncc(-c2ccccc2)[nH]1`, the “activity change, negative = cytotoxicity” value was inactive: -12.7% [at 230 µM]. For `CN1c2cc(C(=O)N3CCN(c4ccc(F)cc4)CC3)ccc2C(=O)N2CCCCCC21` (centres undefined), the Potency was active: 44.7 µM. With `FC(F)(F)c1cccc(-c2cc(-c3cccnc3)c3cncn3c2)c1` the Potency was inconclusive: 100 µM [inhibitor, partial curve, poor fit]. With `COc1cccc(CNC(=O)c2nc3sccn3c2-c2cccc(OC)c2)c1` the Potency was inconclusive: 56.2 µM [inhibitor, partial curve, poor fit]. In the case of `CC(=O)NC1CCN(c2nc3ncccc3o2)C1` (centres undefined), the “activity change, negative = cytotoxicity” value is reported as inactive: 2.72% [at 172 µM]. In the case of `CCOc1ccc(C2Cn3nnc(-c4nc(C)no4)c3CO2)cc1` (centres undefined), the Potency is reported as inconclusive: 79.4 µM [inhibitor, partial curve, poor fit]. For `CSc1ccc(-c2cccc(C(=O)NCC(=O)NC(C)C)c2)cc1`, the Potency was inconclusive: 39.8 µM [inhibitor, partial curve, poor fit]. In the case of `O=C(NC1CCCC1)C1CCN(C(=O)c2ccc(-c3cccs3)cc2)CC1`, the Potency is reported as inconclusive: 56.2 µM [inhibitor, partial curve, poor fit]. With `O=C(CN1C(=O)NC2(CCCCC2)C1=O)Nc1ccc2c(c1)CCC2` the Potency was inconclusive: 39.8 µM [inhibitor, partial curve]. In the case of `COc1ccc(OCC2(C)COc3ccc(C(=O)N4CCN(C)C(=O)C4)cc3N2)cc1` (centres undefined), the Potency is reported as inconclusive: 100 µM [inhibitor, partial curve]. In the case of `Cc1cc(C)cc(NC(=O)Cn2c(N3CCOCC3)nc(C)cc2=O)c1`, the Potency is reported as inconclusive: 56.2 µM [inhibitor, partial curve, poor fit]. For `COc1ccc(NC(=O)Cn2c(=O)n(-c3cccc(C)c3)c(=O)c3c2cc(C)n3C)cc1`, the Potency was inconclusive: 20 µM [inhibitor, full curve, poor fit]. With `Cc1ccccc1NC(=O)CN1C(=O)NC(c2ccccc2Cl)C2=C1COC2=O` (centres undefined) the “activity change, negative = cytotoxicity” value was inactive: -0.401%. With `COc1cccc(-c2cccc(C(=O)N3CCN(C(=O)Cc4ccccn4)CC3)c2)c1` the “activity change, negative = cytotoxicity” value was inactive: -8.76%. With `CC1CCN(C(=O)Cn2ccn3nc(-c4ccc(F)cc4)c(CO)c3c2=O)CC1` the Potency was inconclusive: 89.1 µM [inhibitor, single point]. For `COc1cccc(-c2cc(C(=O)NCCc3ccc(F)cc3)c3cnn(C)c3n2)c1`, the Potency was inconclusive: 44.7 µM [inhibitor, partial curve]. In the case of `CNC(=O)C1CCCN(c2ccnc3ccnn23)C1` (centres undefined), the “activity change, negative = cytotoxicity” value is reported as inactive: -8.08% [at 172 µM]. With `CN1CCN(Cc2cnn(-c3cccc(Cl)c3)c2)CC1CCO` (centres undefined) the “activity change, negative = cytotoxicity” value was inactive: -26.3%. With `COc1ccc(CCC(=O)N2CCC3(CC2)CC(N(C(C)=O)C2CC2)CCO3)cc1` (centres undefined) the “activity change, negative = cytotoxicity” value was inactive: -23.1%. For `CC(=O)N1CCC(c2nnc3n2C(C(=O)NCc2ccc(F)c(F)c2)CC3)CC1` (centres undefined), the “outcome” value was “inactive”. In the case of `O=C(NCCN[S+](=O)([O-])c1ccccc1)c1cccc(-c2ccsc2)c1`, the Potency is reported as active: 50.1 µM. In the case of `O=C(Nc1ccsc1)O[C@@H]1CO[C@H]2[C@@H]1OC[C@@H]2Nc1nccc(-c2cccc(F)c2)n1`, the Potency is reported as inconclusive: 35.5 µM [inhibitor, partial curve, poor fit].
